According to the supplement of paper PMC10369915:
The other results are listed elsewhere or left out. Cut-off read from the data, not from the text of the source: active = 3.2 or more and inactive = the rest. Only a few entries rise above the background.

B1: MPZ_Y177 (peptide)
chain: LLLLFYVVRYC
B2: MSH2_Y856 (peptide)
chain: LEEFQYIGESQ
B3: MST1R_Y1360 (peptide)
chain: QLPATYMNLGP
B4: MPG_Y71_Y71H_YF (peptide)
chain: TTPGPHRSIFF
B5: MRPS34_Y34_YF (peptide)
chain: RDSQLYAVDFE
B6: MPZ_Y82_S78L (peptide)
chain: ILIFHYAKGQP
B7: MPZ_Y181_Y177C (peptide)
chain: FCVVRYCWLRR
B8: MPZ_Y220_A221T (peptide)
chain: QTPVLYTMLDH
B9: MRPS34_Y34_L33I (peptide)
chain: RDSQIYAVDYE
B10: MRPS34_Y34_L33I_YF (peptide)
chain: RDSQIYAVDFE

Target: SHP2 C-SH2 domain E139D
Assay: enrichment score (SH2-bound / input frequency) (ratio); bacterial display of known human phosphotyrosine sites (pTyr-Var adds point mutants) read by sequencing; higher = stronger binding; tyrosines were phosphorylated by kinases first
Conditions: peptide library: pTyr-Var
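Note: displayed peptides selected on beads carrying the immobilized SH2 domain, with library peptides lacking any tyrosine serving as negative controls.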

Row | Binder | enrichment score
1 | B1 | inactive: 1.73
2 | B2 | inactive: 0.569
3 | B3 | inactive: 1.7
4 | B4 | inactive: 0.843
5 | B5 | inactive: 0.693
6 | B6 | active: 3.41
7 | B7 | inactive: 0.314
8 | B8 | inactive: 2.59
9 | B9 | inactive: 0.891
10 | B10 | inactive: 0.778

Target: SHP2 C-SH2 domain wild-type
Assay: as above
Conditions: peptide library: pTyr-Var

Row | Binder | enrichment score
11 | B1 | inactive: 1.66
12 | B2 | inactive: 1.09
13 | B3 | inactive: 2.17
14 | B4 | inactive: 0.778
15 | B5 | inactive: 0.934
16 | B6 | inactive: 3.03
17 | B7 | inactive: 0.311
18 | B8 | active: 3.42
19 | B9 | inactive: 0.631
20 | B10 | inactive: 0.949

Target: SHP2 N-SH2 domain L43F
Assay: as above
Conditions: peptide library: pTyr-Var

Row | Binder | enrichment score
21 | B1 | inactive: 1.57
22 | B2 | inactive: 1.35
23 | B3 | inactive: 1.98
24 | B4 | inactive: 0.943
25 | B5 | inactive: 1.08
26 | B6 | active: 3.23
27 | B7 | inactive: 0.249
28 | B8 | active: 10.2
29 | B9 | inactive: 0.764
30 | B10 | inactive: 0.897

Target: SHP2 N-SH2 domain T42A
Assay: as above
Conditions: peptide library: pTyr-Var

Row | Binder | enrichment score
31 | B1 | inactive: 1.48
32 | B2 | inactive: 0.747
33 | B3 | inactive: 2.22
34 | B4 | inactive: 0.869
35 | B5 | inactive: 0.546
36 | B6 | inactive: 2.55
37 | B7 | inactive: 0.201
38 | B8 | active: 18.4
39 | B9 | inactive: 0.914
40 | B10 | inactive: 0.868

Target: SHP2 N-SH2 domain T52S
Assay: as above
Conditions: peptide library: pTyr-Var

Row | Binder | enrichment score
41 | B1 | inactive: 2.08
42 | B2 | inactive: 1.14
43 | B3 | inactive: 1.9
44 | B4 | inactive: 0.815
45 | B5 | inactive: 0.581
46 | B6 | inactive: 2.83
47 | B7 | inactive: 0.191
48 | B8 | active: 10.7
49 | B9 | inactive: 0.834
50 | B10 | inactive: 0.974

Target: SHP2 N-SH2 domain wild-type
Assay: as above
Conditions: peptide library: pTyr-Var

Row | Binder | enrichment score
51 | B1 | inactive: 1.38
52 | B2 | inactive: 1.5
53 | B3 | inactive: 1.57
54 | B4 | inactive: 0.63
55 | B5 | inactive: 0.802
56 | B6 | active: 3.2
57 | B7 | inactive: 0.322
58 | B8 | active: 4.5
59 | B9 | inactive: 0.847
60 | B10 | inactive: 0.865
